{
  "source": "PubChem BioAssay AID624171",
  "about": "(National Center for Advancing Translational Sciences (NCATS), 2012)",
  "note": "The campaign covered roughly 410,000 compounds. About 1,200 (0.29%) were called active. This list was built around the results that the source calls inconclusive (neither active nor inactive); the mix of calls is not that of the screen. Calls follow the shape of the dose curve; as a rule, active = well fitted activation curve with a large enough effect; inconclusive = small, poorly fitted or top-dose-only effect; inactive = flat fitted curve, though single readings scatter. Where the call is inconclusive, the potency comes from a doubtful curve fit. Potency is read from the fitted curve at half-maximal effect; tags tell the direction and shape of the fitted curve.",
  "data": [
    {"experiment": "qHTS of Nrf2 Activators; also: nearly all actives have a fitted effect of over 65% in size", "details": "AREc32 ARE-luciferase reporter (MCF7-derived line), luminescence, 24 h; series mostly up to 46.1 µM", "summary_of_the_method": "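Each well held 1000 AREc32 cells, which were incubated with compound for 24 hr at 37 deg C after overnight attachment, and ARE reporter activity was quantified by firefly luciferase luminescence.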", "values": [
      {"smiles": "O=C(N/N=C/C=C\\c1ccco1)c1cccs1", "Potency": "inconclusive: 11.2 µM [activator, partial curve, poor fit]"},
      {"smiles": "CCOC(=O)c1cccc(NC(=O)C2CCN(S(=O)(=O)c3cccs3)CC2)c1", "Potency": "inactive"},
      {"smiles": "CCCCCCNc1nc(Cl)nc(NC(C)(C)CO)n1", "Potency": "inactive"},
      {"smiles": "Cc1oc2cc(Br)c(O)c(Br)c2c1-c1ccccc1", "Potency": "inactive"},
      {"smiles": "CC(C)N(C(=O)[C@H]1C[C@H](CC(=O)NCCN2CCOCC2)C(=O)N2CCc3c([nH]c4cc(-c5ccco5)ccc34)[C@]12C)C(C)C", "Potency": "inconclusive: 35.5 µM [activator, single point]"},
      {"smiles": "O=C(Nc1nc2ccccc2[nH]1)c1ccc(Cl)c([N+](=O)[O-])c1", "Potency": "inconclusive: 3.16 µM [activator, full curve]"},
      {"smiles": "Cc1cc2c(c(/C=C/C(=O)c3ccccc3)c1)OC1(C=C2)Oc2ccccc2C(=O)N1C", "note": "(stereo not drawn)", "Potency": "inconclusive: 10 µM [activator, partial curve]"},
      {"smiles": "Cc1ccc(/C=C/C(=O)NC2=NCCS2)cc1", "Potency": "inactive"},
      {"smiles": "COc1ccc(N)cc1-n1c(C)ccc1C", "Potency": "inconclusive: 22.4 µM [activator, single point]"},
      {"smiles": "CS(=O)(=O)Oc1ccc2c(c1)O/C(=C\\C=C\\c1ccccc1)C2=O", "Potency": "inconclusive: 17.8 µM [activator, single point]"},
      {"smiles": "Cc1cc(NC(=O)c2cc(-c3ccccc3)on2)no1", "Potency": "inactive"},
      {"smiles": "Cc1ccc(NC(=O)CN(C)C(=O)C(C)OC(=O)c2ccccc2NCCO)cc1", "note": "(stereo not drawn)", "Potency": "inactive"},
      {"smiles": "COC(=O)c1sccc1NC(=O)c1cccs1", "Potency": "inconclusive: 6.31 µM [activator, partial curve]"},
      {"smiles": "O=C(COc1ccc(Br)cc1Br)NC(=O)NC1CCCC1", "Potency": "inactive"},
      {"smiles": "O=C(/C=C/c1ccccc1)Nc1nc(-c2cccs2)ns1", "Potency": "inconclusive: 0.794 µM [activator, full curve, poor fit]"},
      {"smiles": "CCc1ccc(S(=O)(=O)c2n[nH]n3c2nc(=O)c2ccccc23)cc1", "Potency": "inactive"},
      {"smiles": "COc1ccc(-c2ccc(C(c3c(C)[nH][nH]c3=O)c3c(C)[nH][nH]c3=O)o2)c([N+](=O)[O-])c1", "Potency": "inconclusive: 17.8 µM [activator, single point]"},
      {"smiles": "COc1ccc(CCNC(=S)NC(=O)c2cc(OC)c(OC)c(OC)c2)cc1OC", "Potency": "inactive"},
      {"smiles": "Cc1ccc(Cl)cc1NC(=O)Nc1cn(CC(C)C)c(=O)c2ccccc12", "Potency": "inactive"},
      {"smiles": "CCC(C)c1ccc(O)c(NC(=S)NC(=O)c2cccs2)c1", "note": "(stereo not drawn)", "Potency": "inactive"},
      {"smiles": "CCCc1nn2c(=O)cc(COC(=O)C3CCCCC3)nc2s1", "Potency": "inactive"},
      {"smiles": "CCOC(=O)c1sc(NC(=O)CCN2CCCCCC2)c(C(=O)OCC)c1C", "Potency": "inconclusive: 22.4 µM [activator, single point]"},
      {"smiles": "COc1cc([N+](=O)[O-])ccc1NC(=O)COC(=O)CCOc1ccc(C)cc1", "Potency": "inconclusive: 28.2 µM [activator, single point]"},
      {"smiles": "O=C(Nc1cccc([N+](=O)[O-])c1)c1ccncc1", "Potency": "active: 11.2 µM"},
      {"smiles": "Cc1cccc(N(C(=O)c2ccco2)C(C(=O)NC2CCCC2)c2ccco2)c1C", "note": "(stereo not drawn)", "Potency": "inactive"},
      {"smiles": "CCC(=O)Nc1nc2nc(C)cc(=O)n2[nH]1", "Potency": "inactive"},
      {"smiles": "CSc1nc2ccc(NC(=O)C3=NN(c4ccccc4)C(=O)CC3)cc2s1", "Potency": "inconclusive: 11.2 µM [activator, partial curve, poor fit]"},
      {"smiles": "COc1ccc(NC2=C(Cl)C(=O)N(CCc3ccccc3)C2=O)cc1", "Potency": "inconclusive: 25.1 µM [activator, single point]"},
      {"smiles": "CC(=NNc1nc2ccccc2s1)c1ncccn1", "Potency": "active: 11.2 µM"},
      {"smiles": "CCOc1ccc(CNC(=O)c2ccccc2NC(=O)c2nsc3ccccc23)cc1", "Potency": "inconclusive: 3.55 µM [activator, single point]"},
      {"smiles": "O=C(COC(=O)/C=C/c1ccccc1Cl)Nc1cccnc1Cl", "Potency": "inconclusive: 17.8 µM [activator, partial curve, poor fit]"},
      {"smiles": "CCOc1ccc(/C=C2\\SC(=O)N(CCNC(=O)C3COc4ccccc4O3)C2=O)cc1OC", "note": "(stereo not drawn)", "Potency": "inactive"},
      {"smiles": "Cc1cc(C)c(C#N)c(OCC(=O)c2ccc(Br)cc2)n1", "Potency": "active: 6.31 µM"},
      {"smiles": "O=C(Nc1nnc(-c2ccccc2Cl)o1)c1ccco1", "Potency": "active: 12.6 µM"},
      {"smiles": "O=Cc1c(Sc2ccccc2)nc2ccccn2c1=O", "Potency": "inconclusive: 15.8 µM [activator, single point]"},
      {"smiles": "CCn1c(=O)cc(C(=O)OC)sc1=Nc1ccc(F)c(F)c1", "Potency": "inconclusive: 28.2 µM [activator, single point]"},
      {"smiles": "Cc1cccc(C(=O)NNC(=O)c2cccc([N+](=O)[O-])c2)c1", "Potency": "inconclusive: 15.8 µM [activator, single point]"},
      {"smiles": "CC(C)(C)N/C=C(\\C#N)S(=O)(=O)c1ccc(Br)cc1", "Potency": "inactive"},
      {"smiles": "COC(=O)/C=C1\\N/C(=N/c2nc(C)c3cc(OC)ccc3n2)NC1=O", "Potency": "inconclusive: 22.4 µM [activator, single point]"},
      {"smiles": "Cc1cccc(NC(=O)/C(C#N)=C/c2ccc[nH]2)c1C", "Potency": "inconclusive: 15.8 µM [activator, single point]"},
      {"smiles": "COc1ccc(C(=O)CC(Sc2ccccc2N)c2ccc(OC)cc2)cc1", "note": "(stereo not drawn)", "Potency": "inconclusive: 22.4 µM [activator, single point]"},
      {"smiles": "COc1cccc(-n2nnnc2S(C)(=O)=O)c1", "Potency": "inconclusive: 3.55 µM [activator, partial curve, poor fit]"},
      {"smiles": "CCOC(=O)c1cc(C)nc(S(C)(=O)=O)c1C#N", "Potency": "inconclusive: 31.6 µM [activator, single point]"},
      {"smiles": "COc1ccccc1C(=O)OCc1cc(=O)n2nc(-c3cccs3)sc2n1", "Potency": "inconclusive: 15.8 µM [activator, single point]"},
      {"smiles": "S=C(N/N=C/c1ccco1)NC1CC2CCC1C2", "note": "(stereo not drawn)", "Potency": "active: 12.6 µM"},
      {"smiles": "CCOc1ccccc1C(=O)Nc1ccccc1O", "Potency": "inconclusive: 11.2 µM [activator, partial curve, poor fit]"},
      {"smiles": "CCC(=O)n1nc(NCc2ccc(OC)c(OC)c2)nc1NCc1ccc(OC)c(OC)c1", "Potency": "inactive"},
      {"smiles": "O=C(O)Cc1sc(-c2ccc(Cl)cc2)nc1-c1ccccc1", "Potency": "inactive"},
      {"smiles": "O=C(Nc1nccs1)c1cncc(Br)c1", "Potency": "inactive"},
      {"smiles": "C/C(=N/OC(=O)c1ccccc1Br)c1ccc(C)cc1", "Potency": "inconclusive: 12.6 µM [activator, partial curve, poor fit]"},
      {"smiles": "COc1ccccc1-c1cc(NC(C)=O)c2ncc(-c3cccc(C(C)=O)c3)n2c1", "Potency": "inconclusive: 15.8 µM [activator, single point]"},
      {"smiles": "CC1=CC(=O)Nc2ncccc2O1", "Potency": "inconclusive: 25.1 µM [activator, single point]"},
      {"smiles": "Cc1cnc(C(=O)Nc2ccc(OC(F)(F)F)cc2)cn1", "Potency": "inactive"},
      {"smiles": "CC(=O)c1cccc(NC(=O)CNC(=O)c2sc3ccccc3c2Cl)c1", "Potency": "inconclusive: 12.6 µM [activator, partial curve, poor fit]"},
      {"smiles": "Nn1cnnc1N/N=C/c1cc([N+](=O)[O-])c(Cl)cc1Cl", "Potency": "inconclusive: 22.4 µM [activator, single point]"},
      {"smiles": "NS(=O)(=O)c1cccc(NC(=O)c2ccccc2NS(=O)(=O)c2ccc(F)cc2)c1", "Potency": "inactive"},
      {"smiles": "CC1Cc2ccccc2N1C(=O)/C=C/c1cccc(F)c1", "note": "(stereo not drawn)", "Potency": "inconclusive: 12.6 µM [activator, partial curve, poor fit]"},
      {"smiles": "COC(=O)c1cc2c(s1)-c1ccccc1OC2", "Potency": "inconclusive: 11.2 µM [activator, partial curve]"},
      {"smiles": "Cc1ccc(S(=O)(=O)N2CCN(C(=O)c3cc(=O)c4ccccc4o3)CC2)cc1", "Potency": "inconclusive: 20 µM [activator, single point]"},
      {"smiles": "O=C(COC(=O)c1cc([N+](=O)[O-])ccc1NCCO)Nc1cccc(S(=O)(=O)N2CCCC2)c1", "Potency": "inactive"},
      {"smiles": "C=CCOC(=O)C1=C(C)N=C2SCCC(=O)N2C1/C=C/c1ccccc1", "note": "(stereo not drawn)", "Potency": "inconclusive: 35.5 µM [activator, partial curve, poor fit]"},
      {"smiles": "ClCc1nnc(-c2cc3c(s2)CCCC3)o1", "Potency": "inconclusive: 31.6 µM [activator, single point]"},
      {"smiles": "CCS(=O)(=O)c1nc(S(=O)(=O)c2ccc(C)cc2)c(N2CCN(CCO)CC2)s1", "Potency": "inconclusive: 12.6 µM [activator, partial curve]"},
      {"smiles": "COc1cccc(-c2cnc(NCc3ccccc3Cl)n2C)c1", "Potency": "inactive"},
      {"smiles": "Cc1ccc(C)c(CN2C(=O)c3ccccc3S(=O)c3ccc(C(=O)N(C)Cc4ccccc4)cc32)c1", "note": "(stereo not drawn)", "Potency": "inactive"},
      {"smiles": "C(=N\\Nc1nc2ccccc2s1)/c1ccco1", "Potency": "inconclusive: 1 µM [activator, full curve, poor fit]"},
      {"smiles": "CCn1cc([N+](=O)[O-])c(C(=O)Nc2nc(-c3ccc(C)cc3)c(C)s2)n1", "Potency": "inconclusive: 28.2 µM [activator, single point]"},
      {"smiles": "Cc1c(-c2ccccn2)c(=O)[nH]n1-c1ccc(F)cc1", "Potency": "inconclusive: 3.16 µM [activator, partial curve, poor fit]"},
      {"smiles": "O=C(COC(=O)/C=C/c1ccco1)NC1CCCCC1", "Potency": "inconclusive: 35.5 µM [activator, partial curve, poor fit]"},
      {"smiles": "Cc1ccn2c(-c3n[nH]c(=S)n3Cc3ccccc3)c(C)nc2c1", "Potency": "inactive"},
      {"smiles": "O=c1oc2c(-c3cccc(F)c3)cc(O)cc2s1", "Potency": "inconclusive: 15.8 µM [activator, partial curve, poor fit]"},
      {"smiles": "Cc1oc(=O)c(NC(=O)c2cccc(Cl)c2)cc1C(=O)c1ccccc1", "Potency": "inconclusive: 25.1 µM [activator, single point]"},
      {"smiles": "O=C(CC(c1ccco1)S(=O)(=O)c1ccccc1)c1ccc(F)cc1", "note": "(stereo not drawn)", "Potency": "inconclusive: 22.4 µM [activator, single point]"}
    ]}
  ]
}
